Results: the supplement of paper PMC8728848
This is one part of the list.

Assays:
Experiment in all cases: glycan array binding signal (z-score within array); higher = stronger binding
Conditions in all cases: glycan notation: IUPAC condensed, linker removed
[1] = target: Fuc(a1-3)[Gal(b1-4)]GlcNAc6S
Summary of the method: (§1)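 Glycan array data came from 3228 arrays in the Consortium for Functional Glycomics database, and only arrays with an available protein sequence were kept. Glycan names were put into IUPAC-condensed notation, and columns mapping to the same glycan were averaged. The binding signal is a within-array Z-score, averaged across arrays of one protein sequence run at different concentrations or buffers and across linkers. A negative Z-score can be read as non-binding.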

[2] = target: Fuc(a1-3)[Gal3S(b1-4)]GlcNAc
Summary of the method: as §1

[3] = target: Fuc(a1-3)[Gal3S(b1-4)]GlcNAc6S
Summary of the method: as §1

[4] = target: Fuc(a1-3)[GalNAc(b1-4)]GlcNAc
Summary of the method: as §1

[5] = target: Fuc(a1-4)GlcNAc
Summary of the method: as §1

[6] = target: Fuc(b1-3)GlcNAc
Summary of the method: as §1

[7] = target: Gal(a1-2)Gal
Summary of the method: as §1

[8] = target: Gal(a1-3)Gal
Summary of the method: as §1

[9] = target: Gal(a1-3)Gal(b1-3)GlcNAc
Summary of the method: as §1

[10] = target: Gal(a1-3)Gal(b1-3)GlcNAc(b1-2)Man(a1-3)[Gal(a1-3)Gal(b1-3)GlcNAc(b1-2)Man(a1-6)]Man(b1-4)GlcNAc(b1-4)GlcNAc
Summary of the method: as §1

[11] = target: Gal(a1-3)Gal(b1-3)GlcNAc(b1-3)GalNAc
Summary of the method: as §1

[12] = target: Gal(a1-3)Gal(b1-3)[Fuc(a1-4)]GlcNAc(b1-2)Man(a1-3)[Gal(a1-3)Gal(b1-3)[Fuc(a1-4)]GlcNAc(b1-2)Man(a1-6)]Man(b1-4)GlcNAc(b1-4)GlcNAc
Summary of the method: as §1

[13] = target: Gal(a1-3)Gal(b1-4)Glc
Summary of the method: as §1

[14] = target: Gal(a1-3)Gal(b1-4)GlcNAc
Summary of the method: as §1

[15] = target: Gal(a1-3)Gal(b1-4)GlcNAc(b1-3)GalNAc
Summary of the method: as §1

[16] = target: Gal(a1-3)Gal(b1-4)[Fuc(a1-3)]GlcNAc
Summary of the method: as §1

[17] = target: Gal(a1-3)Gal(b1-4)[Fuc(a1-3)]GlcNAc(b1-2)Man(a1-3)[Gal(a1-3)Gal(b1-4)[Fuc(a1-3)]GlcNAc(b1-2)Man(a1-6)]Man(b1-4)GlcNAc(b1-4)GlcNAc
Summary of the method: as §1

[18] = target: Gal(a1-3)GalNAc
Summary of the method: as §1

[19] = target: Gal(a1-3)[Gal(a1-4)]Gal(b1-4)GlcNAc
Summary of the method: as §1

[20] = target: Gal(a1-4)Gal(b1-3)GlcNAc(b1-2)Man(a1-3)[Gal(a1-4)Gal(b1-3)GlcNAc(b1-2)Man(a1-6)]Man(b1-4)GlcNAc(b1-4)GlcNAc
Summary of the method: as §1

[21] = target: Gal(a1-4)Gal(b1-4)Glc
Summary of the method: as §1

[22] = target: Gal(a1-4)Gal(b1-4)GlcNAc
Summary of the method: as §1

[23] = target: Gal(a1-4)Gal(b1-4)GlcNAc(b1-2)Man(a1-3)[Gal(a1-4)Gal(b1-4)GlcNAc(b1-2)Man(a1-6)]Man(b1-4)GlcNAc(b1-4)GlcNAc
Summary of the method: as §1

[24] = target: Gal(a1-4)Gal(b1-4)GlcNAc(b1-3)Gal(b1-4)Glc
Summary of the method: as §1

[25] = target: Gal(a1-4)GlcNAc
Summary of the method: as §1

[26] = target: Gal(a1-6)Glc
Summary of the method: as §1

[27] = target: Gal(b1-2)Gal
Summary of the method: as §1

[28] = target: Gal(b1-3)Gal
Summary of the method: as §1

[29] = target: Gal(b1-3)Gal(b1-4)GlcNAc
Summary of the method: as §1

[30] = target: Gal(b1-3)Gal(b1-4)GlcNAc(b1-2)Man(a1-3)[Gal(b1-3)Gal(b1-4)GlcNAc(b1-2)Man(a1-6)]Man(b1-4)GlcNAc(b1-4)GlcNAc
Summary of the method: as §1

[31] = target: Gal(b1-3)GalNAc
Summary of the method: as §1

[32] = target: Gal(b1-3)GalNAc(a1-3)[Fuc(a1-2)]Gal(b1-4)Glc
Summary of the method: as §1

[33] = target: Gal(b1-3)GalNAc(a1-3)[Fuc(a1-2)]Gal(b1-4)GlcNAc
Summary of the method: as §1

[34] = target: Gal(b1-3)GalNAc(b1-3)Gal(a1-4)Gal(b1-4)Glc
Summary of the method: as §1

[35] = target: Gal(b1-3)GalNAc(b1-4)Gal(b1-4)Glc
Summary of the method: as §1

[36] = target: Gal(b1-3)GalNAc(b1-4)[Neu5Ac(a2-3)]Gal(b1-4)Glc
Summary of the method: as §1

[37] = target: Gal(b1-3)GlcNAc
Summary of the method: as §1

[38] = target: Gal(b1-3)GlcNAc(a1-6)Gal(b1-4)GlcNAc
Summary of the method: as §1

[39] = target: Gal(b1-3)GlcNAc(b1-2)Man(a1-3)[Gal(b1-3)GlcNAc(b1-2)Man(a1-6)]Man(b1-4)GlcNAc(b1-4)GlcNAc
Summary of the method: as §1

[40] = target: Gal(b1-3)GlcNAc(b1-2)Man(a1-3)[Gal(b1-3)GlcNAc(b1-2)Man(a1-6)]Man(b1-4)GlcNAc(b1-4)[Fuc(a1-6)]GlcNAc
Summary of the method: as §1

[41] = target: Gal(b1-3)GlcNAc(b1-2)[Gal(b1-3)GlcNAc(b1-6)]Man(a1-6)[Gal(b1-3)GlcNAc(b1-2)Man(a1-3)]Man(b1-4)GlcNAc(b1-4)GlcNAc
Summary of the method: as §1

[42] = target: Gal(b1-3)GlcNAc(b1-3)Gal(b1-3)GlcNAc
Summary of the method: as §1

[43] = target: Gal(b1-3)GlcNAc(b1-3)Gal(b1-4)Glc
Summary of the method: as §1

[44] = target: Gal(b1-3)GlcNAc(b1-3)Gal(b1-4)GlcNAc
Summary of the method: as §1

[45] = target: Gal(b1-3)GlcNAc(b1-3)Gal(b1-4)GlcNAc(b1-6)[Gal(b1-3)GlcNAc(b1-3)]Gal(b1-4)Glc
Summary of the method: as §1

B1: Gal 3 (Canis lupus) (protein)
chain: MADSFSLNDALSGSGNPNPQGWPGPWGNQPAGAGGYPGASYPGAYPGQAPPGGYPGQAPPGGYPGQAPPGGYPGQAPPGGYPGQAPPGGYPGQAPPGTYPGPTAPAYPGPTAPGTQPGQPSGPGAYPPPGQPSAPGAYPAAGPFGIPAGPLTVPYDLPLPGGVKPRMLITILGTVRPSANRLALDFKRGNDVAFHFNPRFNEDNKRVIVCNTKLDNIWGKEERQAAFPFESGKPFKIQVLVESDHFKVAVNDAHLLQYNHRMKNLPEISKLGISGDIDLTSASYAMI
**Q.** How did the “glycan array binding signal (z-score)” value [1] turn out when B1 was run?
**A.** -0.161

**Q.** What about the “glycan array binding signal (z-score)” value [2] of the same binder?
**A.** -0.24

**Q.** What about the “glycan array binding signal (z-score)” value [3] of the same binder?
**A.** -0.103

**Q.** What about the “glycan array binding signal (z-score)” value [4] of the same binder?
**A.** -0.261

**Q.** And the “glycan array binding signal (z-score)” value [5]?
**A.** -0.263

**Q.** What about the “glycan array binding signal (z-score)” value [6] of the same binder?
**A.** -0.256

**Q.** And the “glycan array binding signal (z-score)” value [7]?
**A.** -0.249

**Q.** What about the “glycan array binding signal (z-score)” value [8] of the same binder?
**A.** -0.26

**Q.** What about the “glycan array binding signal (z-score)” value [9] of the same binder?
**A.** -0.162

**Q.** What about the “glycan array binding signal (z-score)” value [10] of the same binder?
**A.** -0.192

**Q.** And the “glycan array binding signal (z-score)” value [11]?
**A.** -0.143

**Q.** And the “glycan array binding signal (z-score)” value [12]?
**A.** -0.226

**Q.** And the “glycan array binding signal (z-score)” value [13]?
**A.** -0.239

**Q.** What about the “glycan array binding signal (z-score)” value [14] of the same binder?
**A.** -0.063

**Q.** What about the “glycan array binding signal (z-score)” value [15] of the same binder?
**A.** -0.032

**Q.** And the “glycan array binding signal (z-score)” value [16]?
**A.** -0.257

**Q.** And the “glycan array binding signal (z-score)” value [17]?
**A.** -0.227

**Q.** What about the “glycan array binding signal (z-score)” value [18] of the same binder?
**A.** -0.27

**Q.** What about the “glycan array binding signal (z-score)” value [19] of the same binder?
**A.** -0.259

**Q.** And the “glycan array binding signal (z-score)” value [20]?
**A.** -0.234

**Q.** And the “glycan array binding signal (z-score)” value [21]?
**A.** -0.264

**Q.** And the “glycan array binding signal (z-score)” value [22]?
**A.** -0.256

**Q.** And the “glycan array binding signal (z-score)” value [23]?
**A.** -0.192

**Q.** And the “glycan array binding signal (z-score)” value [24]?
**A.** 0.131

**Q.** And the “glycan array binding signal (z-score)” value [25]?
**A.** -0.277

**Q.** What about the “glycan array binding signal (z-score)” value [26] of the same binder?
**A.** -0.26

**Q.** What about the “glycan array binding signal (z-score)” value [27] of the same binder?
**A.** -0.259

**Q.** What about the “glycan array binding signal (z-score)” value [28] of the same binder?
**A.** -0.246

**Q.** And the “glycan array binding signal (z-score)” value [29]?
**A.** -0.204

**Q.** What about the “glycan array binding signal (z-score)” value [30] of the same binder?
**A.** 1.38

**Q.** And the “glycan array binding signal (z-score)” value [31]?
**A.** -0.265

**Q.** What about the “glycan array binding signal (z-score)” value [32] of the same binder?
**A.** -0.09

**Q.** And the “glycan array binding signal (z-score)” value [33]?
**A.** 1.23

**Q.** And the “glycan array binding signal (z-score)” value [34]?
**A.** -0.248

**Q.** And the “glycan array binding signal (z-score)” value [35]?
**A.** -0.263

**Q.** And the “glycan array binding signal (z-score)” value [36]?
**A.** -0.258

**Q.** And the “glycan array binding signal (z-score)” value [37]?
**A.** -0.231

**Q.** And the “glycan array binding signal (z-score)” value [38]?
**A.** -0.261

**Q.** What about the “glycan array binding signal (z-score)” value [39] of the same binder?
**A.** -0.146

**Q.** What about the “glycan array binding signal (z-score)” value [40] of the same binder?
**A.** -0.196

**Q.** And the “glycan array binding signal (z-score)” value [41]?
**A.** -0.153

**Q.** And the “glycan array binding signal (z-score)” value [42]?
**A.** 0.142

**Q.** What about the “glycan array binding signal (z-score)” value [43] of the same binder?
**A.** -0.074

**Q.** What about the “glycan array binding signal (z-score)” value [44] of the same binder?
**A.** 0.427

**Q.** And the “glycan array binding signal (z-score)” value [45]?
**A.** 0.348
